Publication PMC3709100
Results are given in words; binding and its absence hold for the method and conditions named. Binding seen in cells or lysates may run through a third protein. Some entries that bind do so weakly or less than the wild type. For part of these data: Tags and fused reporters may be left off the sequences shown.

Sequences of proteins named here, by UniProt entry; tags and fusion partners are left off.
UniProt P06700: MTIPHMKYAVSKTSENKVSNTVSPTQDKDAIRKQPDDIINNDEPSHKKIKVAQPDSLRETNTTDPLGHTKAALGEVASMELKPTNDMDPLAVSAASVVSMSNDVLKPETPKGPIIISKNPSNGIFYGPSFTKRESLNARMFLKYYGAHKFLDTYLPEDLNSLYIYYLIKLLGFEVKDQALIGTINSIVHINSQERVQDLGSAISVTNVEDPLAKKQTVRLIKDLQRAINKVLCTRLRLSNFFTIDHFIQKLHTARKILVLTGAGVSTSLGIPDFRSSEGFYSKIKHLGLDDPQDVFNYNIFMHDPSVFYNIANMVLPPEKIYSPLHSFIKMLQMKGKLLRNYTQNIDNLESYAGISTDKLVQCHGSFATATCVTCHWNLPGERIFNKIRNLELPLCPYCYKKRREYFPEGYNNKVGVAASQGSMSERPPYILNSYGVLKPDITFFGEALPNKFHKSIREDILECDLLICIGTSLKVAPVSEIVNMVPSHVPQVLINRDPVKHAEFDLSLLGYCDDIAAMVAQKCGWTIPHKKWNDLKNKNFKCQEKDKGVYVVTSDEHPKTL

T1: Ndd1-VC (S. cerevisiae) (UniProt Q08887)
T1 sequence: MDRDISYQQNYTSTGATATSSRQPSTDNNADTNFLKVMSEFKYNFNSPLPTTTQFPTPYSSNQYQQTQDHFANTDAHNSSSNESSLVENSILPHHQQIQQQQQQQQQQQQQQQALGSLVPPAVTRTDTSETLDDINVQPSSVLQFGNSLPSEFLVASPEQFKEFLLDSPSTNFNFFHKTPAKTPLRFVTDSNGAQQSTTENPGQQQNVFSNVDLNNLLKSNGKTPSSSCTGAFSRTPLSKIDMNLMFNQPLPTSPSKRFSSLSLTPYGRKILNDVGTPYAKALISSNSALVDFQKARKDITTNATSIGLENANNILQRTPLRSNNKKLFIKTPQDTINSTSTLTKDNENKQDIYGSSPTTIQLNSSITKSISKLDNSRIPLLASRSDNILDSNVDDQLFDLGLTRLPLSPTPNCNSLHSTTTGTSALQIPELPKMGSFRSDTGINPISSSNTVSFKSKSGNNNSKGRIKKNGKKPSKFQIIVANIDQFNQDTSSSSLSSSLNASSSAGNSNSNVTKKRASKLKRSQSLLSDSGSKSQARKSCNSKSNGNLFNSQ

B1: Fkh1-Myc (protein, UniProt P40466 1-484)
chain: MSVTSREQKFSGKYSSYTAQDRQGLVNAVTCVLSSSSDPVAVSSDYSNSLSIAREVNAYAKIAGCDWTYYVQKLEVTIGRNTDSLNLNAVPGTVVKKNIDIDLGPAKIVSRKHAAIRFNLESGSWELQIFGRNGAKVNFRRIPTGPDSPPTVLQSGCIIDIGGVQMIFILPEQETIISDYCLNHLMPKLLSTYGTNGNNNPLLRNIIEGSTYLREQRLQEEARLQQLDHLHTPLSSSSDVNPIGDPHGDTIMMEEDEEDENYTRGGIRPNTYTSSSNNAVTNGNVPHIENPSDLSLDENRYIKPPQSYASMITQAILSTPEGSISLADIYKFISDNYAFYRFSQMAWQNSVRHNLSLNKAFEKVPKRAGQQGKGMNWKISDEVRRDFLNKWNAGKLSKIRRGASVTRQLQLHMSKFGEIPAPESSSIDPRGIKAQKVKKSLQATSSILGESAPQLQRTQLTGQISTTTSMDVTTNANVNNSSLS
B2: Fkh2-Myc (protein, UniProt P41813 1-862)
chain: MSSSNFNEMNELNMTQTNYGSTKYTAQHHQGVINAIISSLTAPDQPTTVSLQYSNDKNMATEIQAYAKLSGPNWTYYVKDLEVSIGRNTDPLNSALQENSDGVKNSYRVNIDLGPAKVVSRKHAIIKYNMNIGGWELHILGRNGAKVNFQRTHNGPNNPPIRLSSGTLLDIGGTQMMFILPDSDPVVAPICIEHLMPNLINMFGLEGNNNPLLRDIIKQSNYAKQRQLTSNQQIKGFKLYGSGGNAPFGSGANLGPSEQGIFNNNNNSKNKNGYFTSINPNYTASTTTSNTINPQAASPQGPPNTIIAANFVDSYKSSNAYPQALDFTSDLSHDENRNVKPPHSYATMITQAILSSPEGVISLADIYKYISSNYAYYRFAKSGWQNSIRHNLSLNKAFEKVPRRPNEPGKGMKWRISESYQQEFLNKWNTGKVGKIRRGSSVARQLQLHMAKFNSLPMEMDYRLSLNMAQPPKRQLQSHNVLEPSNNNIIEGFVQHVPSKGNLPASQQSQPPVSHQNQSQQPPPQEQRQEIQFTFADTQNRNIALARPIKTPQLQAPNSNANLNQNNMKEYKESLHPPAISISQMNRQSPNNALVSFTNACANSKIINNISDSADKSTNNNGGTKMNLPAISTSSLDENGNLEPTTTTSSGNSNSVPQTGTTTSSLAANSLRLSQPYDTLLRSPTKAFHITAMEAYTPERGSANRARSPLHSNSNNTNNNGANNSNLQTSGMENKQTGLVLDSNVLKSMESNNDNRRLTPSTSKSQNVKSSPGVWNLLQFSSTNNTPAADSGGNKRGFSINPDIKAKENENATSEKDSDSNSNDLETKDINSSPLKNQGGSTANAKELILDTDGAKISIINN
B3: Hcm1-Myc (protein, UniProt P25364 1-564)
chain: MMNEDISIIDGHNSFLTEKSTVLLTQAKRTLEDEKEMITPPSSTVRKTMKEVNKRPSHPLSPDHSSPIAPSKAKRQRSDTCARSNGNLTLEEILQSLERRRINGELAKKPPYSYATLICLAILQSQEGKLTLSQIYHWIHVHFPYYKQKDASWQNSIRHNLSLNDAFIKTEKSCDGKGHFWEVRPGAETKFFKGENRGYEFVKDSLQDIGKYFEIDSTLDELEQVESGEGNDDLPDEEEREEAGKFPSIEIQLNSSPILRVSQLHHIPQLKTDNSVLNPHENLESMRNMIENDVNNIDSLEPPYVMKKYHTSLGLPSLVNAKDHFQAGVKNNNITQANRFNTLPITSAKSPQNFRKYFTSFNSNFEDLSPLRSNVGAGSLLDPLPYSPLKLYDQKNLALMSKPQSQQSYSNSQLPPPPSSHGSDLLKTPKMRHSDGLEKTPSRLISTPKDGNSILRKWQTPSHLFEDLYCSPLFRAIETPIRYITTPGGTLETQISPRKSSAPDVLTSATNSKFASSGLFGVDVYSVWKRATEKISDGNNTTDSNQKHHPYHNHPSNDSGNEKN
B4: VN-Fkh1 (protein, UniProt P40466 1-484)
chain: MSVTSREQKFSGKYSSYTAQDRQGLVNAVTCVLSSSSDPVAVSSDYSNSLSIAREVNAYAKIAGCDWTYYVQKLEVTIGRNTDSLNLNAVPGTVVKKNIDIDLGPAKIVSRKHAAIRFNLESGSWELQIFGRNGAKVNFRRIPTGPDSPPTVLQSGCIIDIGGVQMIFILPEQETIISDYCLNHLMPKLLSTYGTNGNNNPLLRNIIEGSTYLREQRLQEEARLQQLDHLHTPLSSSSDVNPIGDPHGDTIMMEEDEEDENYTRGGIRPNTYTSSSNNAVTNGNVPHIENPSDLSLDENRYIKPPQSYASMITQAILSTPEGSISLADIYKFISDNYAFYRFSQMAWQNSVRHNLSLNKAFEKVPKRAGQQGKGMNWKISDEVRRDFLNKWNAGKLSKIRRGASVTRQLQLHMSKFGEIPAPESSSIDPRGIKAQKVKKSLQATSSILGESAPQLQRTQLTGQISTTTSMDVTTNANVNNSSLS
B5: VN-Fkh2 (protein, UniProt P41813 1-862)
chain: MSSSNFNEMNELNMTQTNYGSTKYTAQHHQGVINAIISSLTAPDQPTTVSLQYSNDKNMATEIQAYAKLSGPNWTYYVKDLEVSIGRNTDPLNSALQENSDGVKNSYRVNIDLGPAKVVSRKHAIIKYNMNIGGWELHILGRNGAKVNFQRTHNGPNNPPIRLSSGTLLDIGGTQMMFILPDSDPVVAPICIEHLMPNLINMFGLEGNNNPLLRDIIKQSNYAKQRQLTSNQQIKGFKLYGSGGNAPFGSGANLGPSEQGIFNNNNNSKNKNGYFTSINPNYTASTTTSNTINPQAASPQGPPNTIIAANFVDSYKSSNAYPQALDFTSDLSHDENRNVKPPHSYATMITQAILSSPEGVISLADIYKYISSNYAYYRFAKSGWQNSIRHNLSLNKAFEKVPRRPNEPGKGMKWRISESYQQEFLNKWNTGKVGKIRRGSSVARQLQLHMAKFNSLPMEMDYRLSLNMAQPPKRQLQSHNVLEPSNNNIIEGFVQHVPSKGNLPASQQSQPPVSHQNQSQQPPPQEQRQEIQFTFADTQNRNIALARPIKTPQLQAPNSNANLNQNNMKEYKESLHPPAISISQMNRQSPNNALVSFTNACANSKIINNISDSADKSTNNNGGTKMNLPAISTSSLDENGNLEPTTTTSSGNSNSVPQTGTTTSSLAANSLRLSQPYDTLLRSPTKAFHITAMEAYTPERGSANRARSPLHSNSNNTNNNGANNSNLQTSGMENKQTGLVLDSNVLKSMESNNDNRRLTPSTSKSQNVKSSPGVWNLLQFSSTNNTPAADSGGNKRGFSINPDIKAKENENATSEKDSDSNSNDLETKDINSSPLKNQGGSTANAKELILDTDGAKISIINN
B6: VN-Hcm1 (protein, UniProt P25364 1-564)
chain: MMNEDISIIDGHNSFLTEKSTVLLTQAKRTLEDEKEMITPPSSTVRKTMKEVNKRPSHPLSPDHSSPIAPSKAKRQRSDTCARSNGNLTLEEILQSLERRRINGELAKKPPYSYATLICLAILQSQEGKLTLSQIYHWIHVHFPYYKQKDASWQNSIRHNLSLNDAFIKTEKSCDGKGHFWEVRPGAETKFFKGENRGYEFVKDSLQDIGKYFEIDSTLDELEQVESGEGNDDLPDEEEREEAGKFPSIEIQLNSSPILRVSQLHHIPQLKTDNSVLNPHENLESMRNMIENDVNNIDSLEPPYVMKKYHTSLGLPSLVNAKDHFQAGVKNNNITQANRFNTLPITSAKSPQNFRKYFTSFNSNFEDLSPLRSNVGAGSLLDPLPYSPLKLYDQKNLALMSKPQSQQSYSNSQLPPPPSSHGSDLLKTPKMRHSDGLEKTPSRLISTPKDGNSILRKWQTPSHLFEDLYCSPLFRAIETPIRYITTPGGTLETQISPRKSSAPDVLTSATNSKFASSGLFGVDVYSVWKRATEKISDGNNTTDSNQKHHPYHNHPSNDSGNEKN

Experiments:
GST-Sir2 (S. cerevisiae) = GST-Sir2 (S. cerevisiae) (UniProt P06700); test: pull-down; GST or GST-Sir2 from E. coli immobilised on glutathione sepharose beads, incubated overnight at 4°C with 1 ml yeast lysate (5 μg/μl total protein) of cells expressing Myc-tagged Fkh1, Fkh2 or Hcm1; GST-binding buffer (20 mM TrisHCl pH 7.9, 125 mM NaCl, 5 mM MgCl2, 0.5 mM DTT); α-Myc blot; only the target purified
Sir2-VC (S. cerevisiae) [1] = biological target: Sir2-VC (S. cerevisiae) (UniProt P06700); test: condition: only from after 20 min until 70 min after release from α-factor arrest (late S to late M phase); split reporter; Venus BiFC time course after release from α-factor arrest, samples every 10 min; the time points after 20 min until late M phase (70 min)
Sir2-VC (S. cerevisiae) [2] = biological target: Sir2-VC (S. cerevisiae) (UniProt P06700); test: split reporter; Venus BiFC in haploid yeast cells: chromosomal VC fusion and VN fusion from a p426GPD plasmid; fluorescence microscopy; cells in mid-logarithmic/exponential phase, also G1 after α-factor arrest, stationary phase (OD600 ~1.6), 2 mM H2O2 or 40 μM MD
Ndd1-VC (S. cerevisiae) [3] = biological target: T1, Ndd1-VC (S. cerevisiae); test: condition: only cells in stationary phase (OD600 ~1.6); split reporter; Venus BiFC in haploid yeast cells grown to stationary phase (OD600 ~1.6)
Ndd1-VC (S. cerevisiae) [4] = biological target: T1, Ndd1-VC (S. cerevisiae); test: split reporter; Venus BiFC in haploid yeast cells: chromosomal VC fusion and VN fusion from a p426GPD plasmid; fluorescence microscopy; cells in mid-logarithmic/exponential phase, also G1 after α-factor arrest, stationary phase (OD600 ~1.6), 2 mM H2O2 or 40 μM MD

Binder | binding (GST-Sir2 (S. cerevisiae)) | binding (Sir2-VC (S. cerevisiae) [2]) | other results
B1 | binds | – | –
B2 | binds | – | –
B3 | binds | – | –
B4 | – | binds | binding (Sir2-VC (S. cerevisiae) [1]): no binding
B5 | – | binds | binding (Ndd1-VC (S. cerevisiae) [3]): no binding; binding (Ndd1-VC (S. cerevisiae) [4]): binds
B6 | – | binds | –
